# In all, about 48,000 compounds went through this assay and about 120 (0.25%) were called active. About 4% were inconclusive and are not listed. Calls come from the whole dose curve; as a rule, active = well fitted activation curve with a large enough effect; inconclusive = small, poorly fitted or top-dose-only effect, or another doubt; inactive = no such curve, though single readings can be large or run the other way. The list shows a part of the results.
# Test: Primary qHTS for Identification of Small Molecule Activators of Huntingtin-Antisense Promoter Activity; note: nearly all actives have a fitted effect of over 55% in size
# Conditions: HEK293 HTT-AS promoter firefly luciferase reporter (activity 0% = vehicle and -100% = no light), 24 h; series mostly up to 57.5 µM; activity change, positive = activation: at the top concentration
# How it was run: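 HEK293 Fluc reporter, 2,500 cells/well, 24 h pre-culture; cpds up to 57.5 uM final, 24 h 37 degrees C; Dual-Glo, 10 min RT; normalized vehicle = 0%, zero RLU = -100%.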
row,SMILES,"activity change, positive = activation"
1,COc1ccc2c(c1)-c1nc(NC(=O)c3cc(Cl)ccc3OC)sc1CC2,inactive: -10.7%
2,COc1ccccc1CNC(=O)CCn1c(=O)c2ccccc2n(CC(=O)Nc2ccc(C)cc2C)c1=O,inactive: -12.3%
3,CN1c2ccccc2-c2nc(SCC(=O)Nc3ccccc3C(F)(F)F)ncc2S1(=O)=O,inactive: -7.46%
4,Cc1ccc(CSc2nc3ccc(NC(=O)C(C)C)cc3s2)cc1,inactive: -19.5%
5,CCN(Cc1ccccc1)C(=O)Cn1c(=O)n(Cc2ccccc2)c(=O)c2c1c1cc(OC)ccc1n2C,inactive: -10.5%
6,COc1ccc(C(CC(=O)Nc2ccc(C)c(C)c2)N2Cc3ccccc3C2=O)cc1OC (stereo unspecified),inactive: -36.3%
7,O=C(NCC(c1cccnc1)N1CCN(Cc2ccccc2)CC1)C(=O)Nc1ccc(Cl)cc1 (stereo unspecified),inactive: -31.7%
8,Cc1cc(OC(C)C(=O)N2CCC(c3nc4ccccc4o3)CC2)ccc1Cl (stereo unspecified),inactive: -41.9%
9,CC1(C)OC[C@@H](COC(=O)CCc2ccc(OC[C@@H](O)CNCCNC(=O)N3CCOCC3)cc2)O1,inactive: -0.948%
10,COc1ccccc1NC(=O)CSc1ccc(-c2ccccn2)nn1,inactive: -5.34%
11,Cc1ccc(N(C)C(CNS(=O)(=O)c2ccccc2)c2ccccc2)cc1 (stereo unspecified),inactive: -21%
12,CCn1ccc2cc(S(=O)(=O)N3CCCN(C(=O)Nc4cccc(SC)c4)CC3)ccc21,inactive: -15.7%
13,CCCNC(=O)C1CCN(C(=O)N2CC(C)Oc3ccccc32)CC1 (stereo unspecified),inactive: 1.3%
14,Cc1ccc(CNC(=O)C2CCC(CNS(=O)(=O)c3ccc(C)cc3)CC2)cc1 (stereo unspecified),inactive: -1.72%
15,CCCCN(C)S(=O)(=O)c1ccc(NC2=NS(=O)(=O)c3ccccc32)cc1,inactive: -29.7%
16,COc1ccc(-n2ccnc2SCC(=O)Nc2cccc(OC)c2)cc1,inactive: -20.1%
17,Cc1ccc(NC(=O)Cn2cc(C(=O)c3ccco3)c3ccccc32)cc1C,inactive: -19.2%
18,CCCCCCNC(=O)c1c[nH]c2ccc(S(=O)(=O)N(C)c3ccc(C(C)C)cc3)cc2c1=O,inactive: -7.13%
19,N#C/C(=C/c1ccccc1Cl)c1nc2ccccc2c(=O)[nH]1,inactive: -9.55%
20,COc1ccc(N2CCN(C3(c4ccccc4)C(=O)c4ccccc4C3=O)CC2)cc1,inactive: -20.7%
21,Cc1ccc(Cl)cc1N(C)C(=O)c1cc2c(Cl)nc3ccccc3c2s1,inactive: -11.7%
22,O=C(C1CCC(Cn2c(=O)c3sccc3n(Cc3cccc(F)c3)c2=O)CC1)N1CCOCC1 (stereo unspecified),inactive: -25.5%
23,COc1cccc(OC(=O)CSc2nnc(-c3cccs3)o2)c1,inactive: -1.14%
24,Cc1cc2nn(-c3ccc(F)cc3)nc2cc1NC(=O)c1cccc([N+](=O)[O-])c1C,inactive: 27.6%
25,CC(=O)Nc1ccc(Nc2nc3c(S(=O)(=O)c4cc(C)ccc4C)nnn3c3ccsc23)cc1,inactive: -7.73%
26,COC(=O)c1ccc(Nc2nc(-c3ccccc3Cl)nc3ccccc23)cc1,inactive: -38.5%

# Reference: PubChem BioAssay AID1508624 (National Center for Advancing Translational Sciences (NCATS), 2021)
